Measurements taken from paper PMC4336329 (PLoS ONE, 2015).
The whole screen tested about 310,000 compounds, of which about 2,200 (0.71%) showed an effect of 50% or more. The effect is printed as a negative number. The list shows a part of the results.

Molecular target: human ether-à-go-go-related gene (hERG) potassium channel (human, UniProt Q12809)
Experiment: primary screen, population patch clamp on CHO cells stably expressing hERG

human ether-à-go-go-related gene (hERG) potassium channel, sequence (Q12809 whole entry, looked up): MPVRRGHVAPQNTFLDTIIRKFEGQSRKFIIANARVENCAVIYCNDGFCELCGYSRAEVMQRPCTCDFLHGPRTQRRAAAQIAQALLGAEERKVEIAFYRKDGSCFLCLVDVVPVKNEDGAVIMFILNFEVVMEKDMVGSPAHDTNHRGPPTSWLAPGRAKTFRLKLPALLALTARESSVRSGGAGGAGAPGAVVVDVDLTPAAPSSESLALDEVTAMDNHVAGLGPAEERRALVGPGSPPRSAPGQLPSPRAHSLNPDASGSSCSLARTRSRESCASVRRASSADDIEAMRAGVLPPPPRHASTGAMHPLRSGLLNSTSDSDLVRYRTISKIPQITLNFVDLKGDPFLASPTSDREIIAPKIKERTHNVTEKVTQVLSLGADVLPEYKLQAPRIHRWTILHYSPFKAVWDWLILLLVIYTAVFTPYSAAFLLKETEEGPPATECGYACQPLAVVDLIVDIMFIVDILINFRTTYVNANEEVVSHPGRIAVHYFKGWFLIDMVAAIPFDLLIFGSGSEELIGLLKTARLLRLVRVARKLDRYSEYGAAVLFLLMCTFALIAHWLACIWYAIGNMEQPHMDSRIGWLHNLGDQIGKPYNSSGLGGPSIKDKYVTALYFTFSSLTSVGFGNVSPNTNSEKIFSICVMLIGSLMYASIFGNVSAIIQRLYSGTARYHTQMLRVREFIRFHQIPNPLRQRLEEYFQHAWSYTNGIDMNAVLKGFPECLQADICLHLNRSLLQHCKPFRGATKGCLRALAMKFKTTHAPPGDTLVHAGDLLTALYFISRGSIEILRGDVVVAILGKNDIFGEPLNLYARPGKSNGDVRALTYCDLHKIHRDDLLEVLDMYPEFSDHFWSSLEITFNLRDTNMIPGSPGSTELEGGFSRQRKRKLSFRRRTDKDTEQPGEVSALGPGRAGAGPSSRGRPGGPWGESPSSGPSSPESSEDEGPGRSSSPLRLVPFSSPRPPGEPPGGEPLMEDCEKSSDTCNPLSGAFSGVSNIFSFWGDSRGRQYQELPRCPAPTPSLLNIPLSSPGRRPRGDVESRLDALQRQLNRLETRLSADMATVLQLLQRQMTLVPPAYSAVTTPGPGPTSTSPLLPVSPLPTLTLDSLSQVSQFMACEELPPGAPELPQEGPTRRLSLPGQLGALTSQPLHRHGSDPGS

Structure (SMILES)	hERG current change (%, negative = inhibition) at 1uM
O=c1nc2s/c(=C\c3ccco3)c(=O)n2nc1Cc1ccc(F)cc1	-1.12%
CCOC(=O)[C@@H]1[C@H]2COc3cc(OC)ccc3[C@@H]2N2C(=O)N(c3ccc(Cl)cc3)C(=O)[C@@]12C	2.07%
CCOc1ccc(C(=O)Nc2cc(C)ccn2)cc1	7.02%
O=C(NCCc1ccc(S(=O)(=O)N2CCCC2)cc1)c1cccs1	10.2%
Cc1cccc(CN2CCN(CC(=O)NCc3ccc(F)cc3)C2=O)c1	7.12%
O=C(CNCCc1ccc(Cl)cc1Cl)NCc1ccco1	0.503%
C[n+]1ccccc1/C=C/c1c(F)cccc1F.[I-]	16.1%
O=C(N/N=C/c1cc(Br)ccc1O)c1cccc(N2CCCC2=O)c1	5.86%
O=C(CNS(=O)(=O)c1ccccc1)Nc1ccc2c(c1)OCO2	10.3%
CCC1CN(C(=O)N2CCC(C(=O)NCCc3ccc(OC)cc3OC)CC2)c2ccccc2O1 (centres unmarked)	-31.5%
COc1ccc(NC(=O)CC2C(=O)N(c3cccc(OC)c3)C(=O)N2CCC(C)C)cc1 (centres unmarked)	7.68%
O=C(c1cc2ccccc2o1)N1CCC(N2CCC(C(=O)N3CCCC3)CC2)CC1	-16.8%
CCOc1ccccc1N(C(=O)Nc1ccc(Cl)cc1)C1=NCCS1	9.01%
Cc1cc(C(=O)Nc2c(C)n(C)n(-c3ccccc3)c2=O)cs1	-1.47%
CC(C)c1ccc(NC(=O)CCNS(=O)(=O)c2cccc3nsnc23)cc1	0.28%
O=C(O)CCC(=O)N1CCN(c2cccc(Cl)c2)CC1	8.91%
O=Cc1c[nH]c2ccc(S(=O)(=O)N3CCOCC3)cc12	16.2%
CCOC(=O)C(Oc1ccc2c(-c3ccc(OC)cc3)cc(=O)oc2c1C)c1ccccc1 (centres unmarked)	3.56%
O=C(NCCO)c1ccc2nc(Cc3cccc(Cl)c3)oc2c1	9.42%

Structure (SMILES)	hERG current change (%, negative = inhibition) at 1uM
C#CCn1c(=NC(=O)c2ccc(S(=O)(=O)N3CCCc4ccccc43)cc2)sc2cc(S(N)(=O)=O)ccc21	2.36%
O=C(Cc1ccccc1)Nc1ccnn1C1CCN(Cc2ccc(CO)o2)CC1	11.4%
COc1[nH]c(/N=C/c2ccccc2)c(C#N)c1C#N	13.2%
CN(C)CCCn1c(SCC(=O)Nc2nc(-c3cccc(Br)c3)cs2)nc2ccccc2c1=O	-3.37%
O=[N+]([O-])c1ccc(Cl)cc1NCc1cccnc1	14.3%
CCOC(=O)C1=C(C)N=c2s/c(=C/c3ccc(OCC(=O)O)cc3)c(=O)n2C1c1ccc(F)cc1 (centres unmarked)	11.1%
CCOc1ccc2[nH]cc(S(=O)(=O)c3ccc(F)cc3)c(=O)c2c1	2.07%
CN(C)c1cccc2c(S(=O)(=O)N3CCCC3)cccc12	18.2%
COc1ccccc1-c1ccc(Nc2cccc(C(F)(F)F)c2)nn1	17.8%
O=C(O)c1cc2c(cc1NC(=O)c1c(F)cccc1F)OCCCO2	7.9%
CC(CC(=O)Nc1nc2ccccc2[nH]1)n1ccnc1 (centres unmarked)	2.92%
O=C(c1cccc(S(=O)(=O)Nc2ccc(Br)cc2)c1)N1CCCC1	5.53%
O=c1c2ccccc2c(C=Nc2cccc(S(=O)(=O)NCc3ccco3)c2)c(O)n1-c1ccc(Cl)cn1	7.7%
Cc1ccc(-n2ncc3c(NNC(=O)c4cccs4)ncnc32)cc1	9.2%
O=c1[nH][nH]cc1C=Nc1ccc(Cl)cc1	5.81%
CCOc1ccc(/C=C2\SC(=O)N(CCNC(=O)C3COc4ccccc4O3)C2=O)cc1OC (centres unmarked)	8.84%
COc1cc(/C=N/NC(=O)Cc2nnc(N)s2)cc(OC)c1OC	20.3%
CCN1CCN(C(=S)Nc2cccc(Cl)c2)CC1	13%
COc1ccc(C(=O)NNC(=O)Cc2ccc(-c3ccccc3)cc2)cc1OC	-5.96%

Structure (SMILES)	hERG current change (%, negative = inhibition) at 1uM
CCCn1ncc(C(=O)NC2CCCN(Cc3ccc(Cl)cc3)C2)c1C (centres unmarked)	2.88%
Cc1ccc(-c2noc(CSc3nnc(-c4ccncc4)n3-c3ccc(C)cc3)n2)cc1	-6.06%
COc1ccc(-n2c(SC)nc3ccccc3c2=O)cc1	-3.85%
CCn1c(CCNC(=O)c2ccccc2Cl)n[nH]c1=S	4.18%
Cc1cc(C(=O)CS(=O)(=O)c2ccccc2)cc(C)c1OC(=O)N(C)C	12.3%
Cc1ccc(C)c(NC(=O)c2cc(S(=O)(=O)N3CCCCC3)c[nH]2)c1	11.3%
COc1ccc(CCNC(=O)c2cccc(S(=O)(=O)N3CCOCC3)c2)cc1OC	19.7%
O=C1C2CCCN2C(=O)N1CCN1CCN(CCO)CC1 (centres unmarked)	9.8%
CCOC(=O)c1ccc(N/C=C/C(=O)c2ccccc2)cc1	13.8%
CCOc1cccc(/C=N/N2CCN(c3ccc(Cl)cc3)CC2)c1O	16.2%
COC(=O)c1sccc1NC(=O)C1CC(C)=C(C)CC1C(=O)O (centres unmarked)	14.9%
COc1ccc(OCC(O)CNC(=O)c2c(-c3ccccc3)noc2C)cc1 (centres unmarked)	7.45%
O=C(/C=C/c1ccccc1)NNC1=NS(=O)(=O)c2ccccc21	16.4%
CCOC(=O)C1=C(O)C(=O)N(CCCn2ccnc2)C1c1ccc(C)cc1 (centres unmarked)	14.5%
O=C(CN1CCCCC1)Nc1cccc(Cl)c1Cl	5.13%
O=c1[nH]c(/C=C\c2cccc(O)c2)nc(O)c1[N+](=O)[O-]	12.8%
Cc1ccc(S(=O)(=O)CCC#N)cc1	9.07%
COc1ccc(/C=N/c2oc(-c3ccccc3)cc2C#N)cc1	8.34%
